The values below come from article PMC4336329 (PLoS ONE, 2015).

In all, about 310,000 compounds went through this assay and about 14,000 (4.5%) showed an effect of 50% or more. Effects have a minus sign here. Some of the results follow.
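Also: peak tail current of the secondary pulse compared with the same well before compound.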

human ether-à-go-go-related gene (hERG) potassium channel, sequence (Q12809 whole entry, looked up): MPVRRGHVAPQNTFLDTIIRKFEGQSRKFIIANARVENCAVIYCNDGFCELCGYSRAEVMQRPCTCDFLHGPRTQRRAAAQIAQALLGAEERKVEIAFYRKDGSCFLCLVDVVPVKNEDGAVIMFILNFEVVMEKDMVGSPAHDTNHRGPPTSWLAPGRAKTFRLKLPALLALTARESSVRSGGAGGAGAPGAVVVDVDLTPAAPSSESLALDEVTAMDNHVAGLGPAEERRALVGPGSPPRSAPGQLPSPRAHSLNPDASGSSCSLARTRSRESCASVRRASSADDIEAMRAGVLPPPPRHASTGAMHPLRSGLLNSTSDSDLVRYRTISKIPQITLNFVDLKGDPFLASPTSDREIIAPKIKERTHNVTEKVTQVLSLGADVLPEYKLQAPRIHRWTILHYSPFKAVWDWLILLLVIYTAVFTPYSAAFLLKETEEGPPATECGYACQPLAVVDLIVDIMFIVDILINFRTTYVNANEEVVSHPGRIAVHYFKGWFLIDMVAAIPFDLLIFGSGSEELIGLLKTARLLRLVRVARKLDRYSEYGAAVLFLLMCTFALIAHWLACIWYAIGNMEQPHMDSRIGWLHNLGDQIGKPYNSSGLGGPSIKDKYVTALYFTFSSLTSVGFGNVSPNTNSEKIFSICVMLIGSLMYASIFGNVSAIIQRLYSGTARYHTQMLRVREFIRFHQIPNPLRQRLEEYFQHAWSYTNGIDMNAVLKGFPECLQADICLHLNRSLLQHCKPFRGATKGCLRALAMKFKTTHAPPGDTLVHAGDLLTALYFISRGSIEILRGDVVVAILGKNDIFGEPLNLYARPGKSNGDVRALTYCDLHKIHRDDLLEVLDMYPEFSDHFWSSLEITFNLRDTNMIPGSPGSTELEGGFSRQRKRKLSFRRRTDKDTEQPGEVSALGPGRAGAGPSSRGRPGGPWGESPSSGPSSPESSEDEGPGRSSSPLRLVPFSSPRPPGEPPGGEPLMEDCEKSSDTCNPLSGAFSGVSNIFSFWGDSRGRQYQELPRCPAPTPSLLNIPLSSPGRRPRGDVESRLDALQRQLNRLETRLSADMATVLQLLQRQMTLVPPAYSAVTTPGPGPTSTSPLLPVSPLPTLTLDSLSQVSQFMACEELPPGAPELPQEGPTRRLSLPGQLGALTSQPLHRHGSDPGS

This assay addresses human ether-à-go-go-related gene (hERG) potassium channel (human, UniProt Q12809). Kind of assay: primary screen, population patch clamp on CHO cells stably expressing hERG.
With `COc1ccc(C(=O)NCCOc2cccc(OC)c2)cc1`, the “hERG current change (%, negative = inhibition) at 10uM” value was 7.75%.
Turning to `Cn1nc(-c2ccccc2)cc1NC(=O)Nc1ccc(C(C)(C)C)cc1`, the “hERG current change (%, negative = inhibition) at 10uM” value is 6.56%.
`O=C(Nc1ccnn1C1CCN(Cc2cccc(OCCO)c2)CC1)C1CC1`: the “hERG current change (%, negative = inhibition) at 10uM” value was 0.219%.
The same measure for `Cc1noc(C)c1COc1ccc(C(=O)N2CCCC(C(N)=O)C2)cc1` (centres unmarked): -7.3%; for `Cc1cccc(OCC(=O)N/N=C\C=C\c2ccc3c(c2)OCO3)c1C`: 15.9%; for `CCn1cc(/C=C(\NC(=O)c2ccccc2OC)C(=O)NCCCN2CCOCC2)c2ccccc21`: -7.61%.
Consider `CC(C)CNC(=O)c1ccccc1N(Cc1ccccc1)S(C)(=O)=O`, for which the “hERG current change (%, negative = inhibition) at 10uM” value is listed as 8.39%.
As for `CCOc1cc(CC(=O)N[C@@H](CC(C)C)c2ccccc2N2CCCCC2)ccc1C(=O)O`, the “hERG current change (%, negative = inhibition) at 10uM” value is 13.9%.
As to `COc1ccc(/C(C)=N/Nc2cccc(C(=O)O)c2)cc1OC`, the “hERG current change (%, negative = inhibition) at 10uM” value was 4.26%.
The same measure for `CCOc1ccc(OCCN2CCCCC2)cc1.O=C(O)C(=O)O`: -21.7%; for `CCOc1ccc(OCCC(=O)NNC(=O)c2cc(C)oc2C)cc1`: 6.75%; for `COC(=O)C1=C(C)N(CCc2cc(OC)c(OC)c(OC)c2)C(=O)N[C@H]1c1cccs1`: 21.3%.
In the case of `COc1ccc(S(=O)(=O)N2CCCCCC2)cc1C(=O)N(C)CC(=O)Nc1cc(C)ccc1C`, the “hERG current change (%, negative = inhibition) at 10uM” value was -1.65%.
For the molecule `CC(=O)Nc1nnc(COc2ccccc2)s1`, the “hERG current change (%, negative = inhibition) at 10uM” value worked out at 2.61%.
Take `CCc1cc(=O)[nH]c(SC/C=C/c2ccccc2)n1`: the “hERG current change (%, negative = inhibition) at 10uM” value stood at 9.1%.
With `Cc1ccccc1Nc1nc(-c2ccccc2)c(C(=O)Nc2cccnc2)s1`, the “hERG current change (%, negative = inhibition) at 10uM” value was -4.94%.
As for `O=C(Nc1ncc(Cc2cccc(C(F)(F)F)c2)s1)c1ccc(-c2cccc([N+](=O)[O-])c2)o1`, the “hERG current change (%, negative = inhibition) at 10uM” value is -0.341%.
As to `O=C(COc1ccc2ccc(=O)oc2c1)Nc1ccc(N2CCCCC2)cc1`, the “hERG current change (%, negative = inhibition) at 10uM” value is recorded as -2.46%.
The same measure for `O=C(COC(=O)c1ccc(Cl)c(S(=O)(=O)N2CCN(c3ccc(F)cc3)CC2)c1)Nc1cccc(Cl)c1`: 14.4%.
Take `Clc1ccccc1-c1nnc2sc(C3COc4ccccc4O3)nn12` (centres unmarked): the “hERG current change (%, negative = inhibition) at 10uM” value is recorded as -15.3%.
`O=[n+]1c2c(n([O-])c3c1CCCC3)CCCCC2`: the “hERG current change (%, negative = inhibition) at 10uM” value came to 0.534%.
`COc1ccc(NC(=O)C2CCN(S(=O)(=O)c3ccc(N4CCCC4=O)cc3)CC2)c(OC)c1`: the “hERG current change (%, negative = inhibition) at 10uM” value was -8.46%.
Take `CC1CCN(Cc2nnnn2CCCC(=O)NC(c2ccccn2)C(F)(F)F)CC1` (centres unmarked): the “hERG current change (%, negative = inhibition) at 10uM” value worked out at 1.39%.
Consider `O=C(CCS(=O)(=O)c1ccc(Br)cc1)NC1CCCCCC1`, for which the “hERG current change (%, negative = inhibition) at 10uM” value amounted to 3.28%.
For the molecule `Cc1cccc(C(=O)N2CCN(c3ccc(C(F)(F)F)cn3)CC2)c1C`, the “hERG current change (%, negative = inhibition) at 10uM” value is recorded as -19.6%.
With `COc1ccccc1/C=N/NC(=O)CCSc1ccccc1`, the “hERG current change (%, negative = inhibition) at 10uM” value was determined as 18.3%.
`C/C(=N\NC(=O)OC(C)(C)C)c1ccccc1Br`: the “hERG current change (%, negative = inhibition) at 10uM” value is listed as 15.7%.
Take `Cc1cc(C(=O)CN2C(=O)NC(CC(C)C)C2=O)c(C)n1-c1ccccc1F` (centres unmarked): the “hERG current change (%, negative = inhibition) at 10uM” value is -8.7%.
For `O=C(O)c1ccc(NC2=C(Cl)C(=O)c3ccccc3C2=O)cc1`, the “hERG current change (%, negative = inhibition) at 10uM” value was found to be 14.7%.
As to `Cc1ccc(NC(=O)COC(=O)Cc2ccsc2)cc1S(=O)(=O)N1CCOCC1`, the “hERG current change (%, negative = inhibition) at 10uM” value is -28.6%.
For the molecule `CC(C)(C)C(=O)OCOC(=O)[C@@H]1N2C(=O)[C@@H](N=CN3CCCCCC3)[C@H]2SC1(C)C.Cl`, the “hERG current change (%, negative = inhibition) at 10uM” value is given as -0.135%.
The same measure for `Cc1ccc(-c2cc3nc4c(c(=O)n3[nH]2)CCCC4)cc1`: 8.8%; for `CC1CCc2c(C(=O)Nc3ccc(N4CCOCC4)cc3)csc2C1` (centres unmarked): 16.4%.
With `O=C(/C=C/c1ccco1)OCn1nnc2ccccc2c1=O`, the “hERG current change (%, negative = inhibition) at 10uM” value is on record as -6.79%.
Consider `Cc1cc(C)cc(NC(=O)CN2C(=O)NC(C)(c3ccccc3)C2=O)c1` (centres unmarked), for which the “hERG current change (%, negative = inhibition) at 10uM” value came to 2.44%.
The same measure for `CC(=O)NN1C(=O)c2ccc3c4c(ccc(c24)C1=O)C(=O)N(NC(C)=O)C3=O`: 20.3%; for `Brc1cccc(-c2nnc3sc(CN4CCCCC4)cn23)c1`: -11%.
In the case of `COC(=O)c1cc(NC(=O)COC(=O)C2CCC2)cc(C(=O)OC)c1`, the “hERG current change (%, negative = inhibition) at 10uM” value was determined as 11.3%.
Consider `O=C(CC1C(=O)NCCN1Cc1cccc(F)c1)NCCCCCN1CCOCC1` (centres unmarked), for which the “hERG current change (%, negative = inhibition) at 10uM” value amounted to 5.36%.
Consider `O=C(O)C(=O)O.O=C1CC(Cc2ccccc2)C(=O)N1CCCn1ccnc1` (centres unmarked), for which the “hERG current change (%, negative = inhibition) at 10uM” value is on record as -9.86%.
For `Cn1cnc(S(=O)(=O)Nc2ccc(OC(F)(F)F)cc2)c1`, the “hERG current change (%, negative = inhibition) at 10uM” value is on record as 6.24%.
Turning to `CCSC1=C(C#N)C(c2cccc(OC)c2)CC(=O)N1` (centres unmarked), the “hERG current change (%, negative = inhibition) at 10uM” value was -2.66%.
Consider `Cc1cc([N+](=O)[O-])ccc1N(C)C`, for which the “hERG current change (%, negative = inhibition) at 10uM” value was 4%.
For the molecule `CCCCN(C(=O)CCCc1nc2ccccc2c(=O)[nH]1)c1c(N)n(CCCC)c(=O)[nH]c1=O`, the “hERG current change (%, negative = inhibition) at 10uM” value was 25.4%.
With `N/C(=N\OC(=O)Cc1ccccc1)c1cccnc1`, the “hERG current change (%, negative = inhibition) at 10uM” value was -12.9%.
As for `On1ccccc1=S`, the “hERG current change (%, negative = inhibition) at 10uM” value amounted to 9.55%.
For the molecule `CCC(C(=O)NCCCN(CC)Cc1ccccc1)n1nc(C)c2sc3ccccc3c2c1=O` (centres unmarked), the “hERG current change (%, negative = inhibition) at 10uM” value is -68.1%.
With `CCN(CC)S(=O)(=O)c1ccc(C(=O)NCCSc2c[nH]c3ccccc23)cc1`, the “hERG current change (%, negative = inhibition) at 10uM” value was -19.6%.
Turning to `CCOC(=O)c1ccc(NC(=S)NC2CCCC2)cc1`, the “hERG current change (%, negative = inhibition) at 10uM” value is on record as -7.86%.
The same measure for `CCOC(=O)C1CSC(CC(=O)Nc2ccc(OC(F)(F)F)cc2)C(=O)N1` (centres unmarked): -56.3%; for `COC(=O)N/N=C(/c1ccccc1)C1CCCCC1`: 31%; for `Cc1cccc(NC(=O)C2CCN(S(=O)(=O)c3c(C)noc3C)CC2)c1`: -12.6%.
As for `O=C(COc1ccc(S(=O)(=O)N2CCOCC2)cc1)NCCN1CCOCC1`, the “hERG current change (%, negative = inhibition) at 10uM” value is given as 19%.
For `Nc1nonc1-n1nnc(C(=O)N/N=C/c2ccncc2)c1CSc1ccc(Cl)cc1`, the “hERG current change (%, negative = inhibition) at 10uM” value worked out at 28.2%.
Turning to `Cc1cc(C(C)(C)C)oc1C(=O)N(CC(=O)NC1CCCC1)Cc1ccccc1`, the “hERG current change (%, negative = inhibition) at 10uM” value is given as 16.7%.
Regarding `Cl.Nc1nonc1C(=O)NCCNCc1ccccc1OCc1ccc(F)cc1`, the “hERG current change (%, negative = inhibition) at 10uM” value is -65.9%.
